# The list shows a part of the results. Rule as the data show it: active = 3.2 or more and inactive = the rest. The signal is at background level for most entries.
# Assays:
# Test in all cases: enrichment score (SH2-bound / input frequency) (ratio); bacterial display of known human phosphotyrosine sites (pTyr-Var adds point mutants) read by sequencing; higher = stronger binding; tyrosines were phosphorylated by kinases first
# Conditions in all cases: peptide library: pTyr-Var
# SHP2 C-SH2 domain E139D = biological target: SHP2 C-SH2 domain E139D
# [1] = biological target: SHP2 C-SH2 domain wild-type
# SHP2 N-SH2 domain L43F = biological target: SHP2 N-SH2 domain L43F
# SHP2 N-SH2 domain T42A = biological target: SHP2 N-SH2 domain T42A
# SHP2 N-SH2 domain T52S = biological target: SHP2 N-SH2 domain T52S
# [2] = biological target: SHP2 N-SH2 domain wild-type
# 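Also: displayed peptides selected on beads carrying the immobilized SH2 domain, with library peptides lacking any tyrosine serving as negative controls.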
Binder,enrichment score (SHP2 C-SH2 domain E139D),enrichment score [1],enrichment score (SHP2 N-SH2 domain L43F),enrichment score (SHP2 N-SH2 domain T42A),enrichment score (SHP2 N-SH2 domain T52S),enrichment score [2]
ANNEYYFQVCA [TTN_Y18998_R19000Q],inactive: 0.894,inactive: 1.14,inactive: 0.986,inactive: 0.807,inactive: 0.742,inactive: 1.2
ANNEFYFQVCA [TTN_Y18998_R19000Q_YF],inactive: 0.559,inactive: 0.813,inactive: 0.569,inactive: 0.438,inactive: 0.579,inactive: 1.04
AKIDGYIISYR [TTN_Y19760_T19762I],inactive: 1.12,inactive: 1.07,inactive: 1.09,inactive: 0.953,inactive: 1.08,inactive: 1.34
AKIDGYIISFR [TTN_Y19760_T19762I_YF],inactive: 0.978,inactive: 0.945,inactive: 0.96,inactive: 1.01,inactive: 0.913,inactive: 0.967
AKIDGYITSFR [TTN_Y19760_YF],inactive: 0.864,inactive: 0.727,inactive: 0.894,inactive: 0.815,inactive: 0.82,inactive: 0.764
GFITSYREEEQ [TTN_Y19764_YF],inactive: 0.895,inactive: 0.816,inactive: 0.944,inactive: 0.734,inactive: 0.962,inactive: 0.847
IPQEEYKATGL [TTN_Y20178_T20179K],inactive: 0.884,inactive: 0.735,inactive: 0.727,inactive: 0.635,inactive: 0.727,inactive: 1.04
ITKNPYDPPGR [TTN_Y20412_A20408T],inactive: 0.77,inactive: 0.567,inactive: 0.67,inactive: 0.513,inactive: 0.608,inactive: 0.736
PKDSAYVTWEP [TTN_Y20731_S20726P],inactive: 0.688,inactive: 0.677,inactive: 0.745,inactive: 0.593,inactive: 0.587,inactive: 0.796
LECEWYKNGVK [TTN_Y2112_P2107L],inactive: 1.18,inactive: 1.02,inactive: 1.21,inactive: 0.647,inactive: 0.725,inactive: 1.41
CHKCTYKVTGL [TTN_Y21853],active: 4.63,active: 4.04,active: 4.37,active: 3.65,active: 4.03,active: 3.45
CHKRTYKVTGL [TTN_Y21853_C21851R],inactive: 1.42,inactive: 1.02,inactive: 1.05,inactive: 1.08,inactive: 1.21,inactive: 1.19
DLHGIYQKLVI [TTN_Y21998_R21995H],inactive: 1.59,inactive: 1.17,inactive: 1.28,inactive: 1.19,inactive: 1.22,inactive: 1.27
TDGIAYEFRVT [TTN_Y22256_I22261T],inactive: 0.854,inactive: 1.23,inactive: 0.905,inactive: 0.687,inactive: 0.656,inactive: 1.14
LAVNPYGPPDP [TTN_Y22579],inactive: 0.84,inactive: 0.758,inactive: 0.818,inactive: 0.577,inactive: 0.791,inactive: 0.941
KPGVNYYFRVS [TTN_Y28165],inactive: 1.01,inactive: 1.16,inactive: 1.01,inactive: 0.804,inactive: 0.786,inactive: 1.11
KPGVNYFFQVS [TTN_Y28165_R28168Q_YF],inactive: 1.29,inactive: 1.33,inactive: 1.13,inactive: 1.36,inactive: 1.41,inactive: 1.25
KPGVNYFFRVS [TTN_Y28165_YF],inactive: 1.07,inactive: 0.958,inactive: 0.968,inactive: 0.82,inactive: 0.845,inactive: 1.37
PGVNFYFQVSA [TTN_Y28166_R28168Q_YF],inactive: 1.09,inactive: 2.23,inactive: 1.51,inactive: 0.88,inactive: 0.999,inactive: 1.84
